Some of the results follow.
What follows are molecules tested on S. aureus RN4220 (assay: growth inhibition call (relative growth <= 0.2)). Conditions: 50 µM.

Growth inhibition call, inactive:
CC(C)CS(=O)(=O)N1CCC2(CC1)[C@H]1CN(c3ncccn3)C[C@@H]1C(=O)N2C
C[C@H]1CN([C@@H](C)CO)C(=O)c2cc(NS(=O)(=O)c3cccs3)ccc2O[C@@H]1CN(C)Cc1ccc(Cl)c(Cl)c1
Cn1c(=O)n2n(c1=O)[C@H](C1CC1)C=C1CN3[C@@H]([C@H](Cc4ccccc4)OC(=O)[C@@H]3COC(=O)NCCCCCC(=O)NO)[C@@H]12
COc1cccc(S(=O)(=O)N[C@@H]2CC[C@@H](CC(=O)NC3CCC3)O[C@@H]2CO)c1
O=C(C[C@@H]1CC[C@H]2[C@@H](COC[C@@H](O)CN2S(=O)(=O)c2cccc(F)c2)O1)NCCCN1CCOCC1
C[C@@H]1CN([C@H](C)CO)C(=O)c2cc(NC(=O)Nc3ccc(C(F)(F)F)cc3)ccc2O[C@@H](C)CCCCO[C@@H]1CN(C)Cc1ccccc1
CC(C=CC1=C(C)CCCC1(C)C)=CC=CC(C)=CCO
C[C@@H]1CCCCO[C@@H](CN(C)Cc2ccc(C(F)(F)F)cc2)[C@@H](C)CN([C@H](C)CO)C(=O)c2cc(NC(=O)CCCCCC(=O)Nc3ccccc3N)ccc2O1
CN(C)CC#Cc1ccc([C@H]2[C@H](CO)N3C(=O)CN(C(=O)CN(C)C)C[C@@H]23)cc1

Source: the antibiotic and cytotoxicity screens of Wong et al. (2023)
